{
  "source": "PubChem BioAssay AID720708",
  "about": "(National Center for Advancing Translational Sciences (NCATS), 2013)",
  "note": "In all, about 360,000 compounds went through this assay and about 660 (0.18%) were called active. Inconclusive means that the source gave no clear call. Such entries were picked first, then a sample of the others. Calls come from the whole dose curve; as a rule, active = well fitted inhibition curve with a large enough effect; inconclusive = small, poorly fitted or top-dose-only effect; inactive = no such curve, though single readings can be large or run the other way. No potency is given beside an inconclusive call; the fits are too rough. Potency is the fitted concentration of half-maximal effect; tags give direction and shape of the fitted curve.",
  "data": [
    {"biological_target": "Rap guanine nucleotide exchange factor 4 (Homo sapiens) (UniProt Q8WZA2)", "sequence (Q8WZA2 whole entry, looked up)": "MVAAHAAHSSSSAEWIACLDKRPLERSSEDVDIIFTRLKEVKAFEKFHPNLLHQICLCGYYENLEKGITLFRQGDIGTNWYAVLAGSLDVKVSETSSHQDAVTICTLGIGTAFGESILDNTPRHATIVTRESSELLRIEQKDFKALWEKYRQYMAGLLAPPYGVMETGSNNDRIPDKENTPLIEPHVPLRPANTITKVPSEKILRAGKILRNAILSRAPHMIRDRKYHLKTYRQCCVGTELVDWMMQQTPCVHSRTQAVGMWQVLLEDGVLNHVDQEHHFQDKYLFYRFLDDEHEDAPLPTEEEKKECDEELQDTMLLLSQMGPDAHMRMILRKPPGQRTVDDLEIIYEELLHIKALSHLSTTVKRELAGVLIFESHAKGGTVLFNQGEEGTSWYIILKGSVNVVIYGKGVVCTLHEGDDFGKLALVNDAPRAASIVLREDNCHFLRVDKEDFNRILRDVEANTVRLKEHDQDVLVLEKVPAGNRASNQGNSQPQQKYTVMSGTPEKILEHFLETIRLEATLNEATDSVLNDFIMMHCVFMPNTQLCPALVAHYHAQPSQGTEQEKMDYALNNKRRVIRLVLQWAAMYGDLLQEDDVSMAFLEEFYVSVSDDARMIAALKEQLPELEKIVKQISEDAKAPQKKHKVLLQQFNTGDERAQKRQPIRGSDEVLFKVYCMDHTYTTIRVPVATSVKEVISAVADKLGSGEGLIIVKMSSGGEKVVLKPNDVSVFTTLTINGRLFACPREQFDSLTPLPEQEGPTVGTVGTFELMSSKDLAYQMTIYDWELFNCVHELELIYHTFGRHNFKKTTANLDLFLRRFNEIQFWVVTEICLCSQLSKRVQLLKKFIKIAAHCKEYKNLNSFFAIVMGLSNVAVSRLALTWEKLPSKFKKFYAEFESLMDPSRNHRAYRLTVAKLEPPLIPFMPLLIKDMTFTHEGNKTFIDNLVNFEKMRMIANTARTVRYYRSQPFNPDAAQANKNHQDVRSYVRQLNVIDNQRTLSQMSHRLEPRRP", "assay": "qHTS for Antagonist of cAMP-regulated guanine nucleotide exchange factor 2 (EPAC2): primary screen; note: nearly all actives have a fitted effect of over 45% in size", "conditions": "EPAC2 GEF exchange of Rap1B-BODIPY-GDP, fluorescence; series mostly up to 114 µM", "values": [
      {"smiles": "CCc1ccc(S(=O)(=O)Nc2cc3c(cc2C)n(C)c(=O)n3C)cc1", "Potency": "inconclusive [inhibitor, partial curve]"},
      {"smiles": "C=CC[C@@H](CC(=O)N[C@H](CO)Cc1ccccc1)C(=O)N[C@H](COC(=O)[C@@H](CC=C)Cc1ccc(F)cc1)C(C)(C)C", "Potency": "inactive"},
      {"smiles": "Cc1ccc(CC(=O)NNC(=O)c2cccs2)cc1C", "Potency": "inactive"},
      {"smiles": "COc1ccc(CNC(=O)O[C@H]2CN(C(=O)OC(C)C)N(C(=O)OC(C)C)[C@@H]3CN(S(=O)(=O)c4ccc(C)cc4)C[C@]23O)cc1OC", "Potency": "inconclusive [inhibitor, partial curve]"},
      {"smiles": "Cc1ccc(O)c(CNc2ccc(S(=O)(=O)Nc3nccs3)cc2)c1", "Potency": "active: 22.4 µM"},
      {"smiles": "COc1ccc(OCc2nnc(SCC(=O)Nc3ccccc3Cl)o2)cc1", "Potency": "inactive"},
      {"smiles": "Cc1cc(C)c2c(N)c(C(=O)Nc3c(C)n(C)n(-c4ccccc4)c3=O)sc2n1", "Potency": "inactive"},
      {"smiles": "COc1ccc(CCNC(=O)CSCc2ccc([N+](=O)[O-])cc2)cc1OC", "Potency": "inactive"},
      {"smiles": "COC(=O)c1nc2nc(C)cc(=O)n2[nH]1", "Potency": "inconclusive [inhibitor, single point]"},
      {"smiles": "COc1cccc(C(Nc2ccccc2)c2ccc3ccc(C)nc3c2O)c1", "note": "(stereo not drawn)", "Potency": "inactive"},
      {"smiles": "COc1ccc2cc(C(C)C(=O)OC(C)C)ccc2c1", "note": "(stereo not drawn)", "Potency": "inconclusive [inhibitor, partial curve]"},
      {"smiles": "CC(NC(=O)Cc1ccc([N+](=O)[O-])cc1)c1ccc2c(c1)OCO2", "note": "(stereo not drawn)", "Potency": "inconclusive [inhibitor, single point]"},
      {"smiles": "CCOC(=O)CN1C(=O)S/C(=C/c2ccc3c(c2)n(C)c(=O)n3C)C1=O", "Potency": "inactive"},
      {"smiles": "Cc1cc(C)cc(N(CC(=O)Nc2ccc(C(F)(F)F)cc2)S(=O)(=O)c2c(C)[nH]c(=O)[nH]c2=O)c1", "Potency": "inconclusive [inhibitor, partial curve]"},
      {"smiles": "CCCCNc1c(-c2ccc(OC)c(SC3CCCCC3)c2)nc2cnccn12", "Potency": "inconclusive [inhibitor, full curve]"},
      {"smiles": "C=C[C@]1(C)C=C2CCC3[C@](C)(CCC[C@@]3(C)C(=O)O)C2CC1", "note": "(stereo partly drawn)", "Potency": "inconclusive [inhibitor, partial curve]"},
      {"smiles": "COc1ccc(S(=O)(=O)N2CCCOC2CNC(=O)C(=O)NCCc2ccco2)cc1C", "note": "(stereo not drawn)", "Potency": "inconclusive [inhibitor, partial curve]"},
      {"smiles": "O=C(NC1CCCC1)C(c1ccccc1)n1c(-c2cccc3ccccc23)nc2ccccc21", "note": "(stereo not drawn)", "Potency": "inconclusive [inhibitor, full curve]"},
      {"smiles": "COc1ccc(OC)c(/C=C/C(=O)N2CCCc3ccccc32)c1", "Potency": "inconclusive [inhibitor, partial curve]"},
      {"smiles": "Cc1onc(-c2ccccc2)c1C(=O)c1c[nH]c(C(=O)NCc2ccccn2)c1", "Potency": "inconclusive [inhibitor, partial curve]"},
      {"smiles": "O/N=C/c1ccccc1Oc1ccc(Cl)cc1", "Potency": "inconclusive [inhibitor, full curve]"},
      {"smiles": "CCOC(=O)c1ccc(NC(=O)c2nc[nH]c2C(=O)N[C@@H](CC(C)C)C(=O)OC(C)(C)C)cc1", "Potency": "inconclusive [inhibitor, full curve, poor fit]"},
      {"smiles": "CCc1ccc(S(=O)(=O)/N=C2\\C=C(Nc3ccc(O)cc3)C(=O)c3ccccc32)cc1", "Potency": "inactive"},
      {"smiles": "CC(=O)N1CCN(c2ccccc2NC(=O)c2cccc3c(Cl)cccc23)CC1", "Potency": "inactive"},
      {"smiles": "Cc1cccc(NC(=O)CSc2nnc(-c3ccccc3C)o2)c1", "Potency": "inactive"},
      {"smiles": "CCOC(=O)c1ccc(NC(=S)Nc2cccc(C)n2)cc1", "Potency": "inactive"},
      {"smiles": "CC(SC1=NCCN1S(=O)(=O)c1ccc(F)cc1)c1ccccc1", "note": "(stereo not drawn)", "Potency": "inconclusive [inhibitor, full curve]"},
      {"smiles": "C=CCOC(=O)C1=C[C@@H](c2ccc(Br)cc2)[C@H](CCCO)[C@@H](OCC)O1", "Potency": "inconclusive [inhibitor, partial curve, poor fit]"},
      {"smiles": "C=CCSc1nc2ccsc2c(=O)n1-c1ccccc1", "Potency": "inconclusive [inhibitor, full curve]"},
      {"smiles": "OCCN1CCN(CCCN2c3ccccc3Sc3ccc(Cl)cc32)CC1", "Potency": "inconclusive [inhibitor, full curve]"},
      {"smiles": "COc1cccc(CCNC(=O)c2ccc(C#N)cc2)c1", "Potency": "inactive"},
      {"smiles": "CC(C)(C(=O)N1CCC1(C)C(=O)NS(=O)(=O)c1cccc(Cl)c1)c1ccccc1", "note": "(stereo not drawn)", "Potency": "inconclusive [inhibitor, partial curve]"},
      {"smiles": "O=C(Oc1ccc(C(=S)N2CCOCC2)cc1)c1ccc(Br)cc1", "Potency": "inactive"},
      {"smiles": "CC(CC(c1ccccc1)N1CCc2ccccc2C1)=NO", "note": "(stereo not drawn)", "Potency": "inconclusive [inhibitor, partial curve]"},
      {"smiles": "CC1(C(=O)NCc2cccc(C(F)(F)F)c2)CCN1Cc1cc2ccccc2o1", "note": "(stereo not drawn)", "Potency": "inconclusive [inhibitor, partial curve]"},
      {"smiles": "CCCCCCCCN1[C@@H](CC(=O)OCC)c2cc(F)ccc2S1(=O)=O", "Potency": "inconclusive [inhibitor, full curve, poor fit]"},
      {"smiles": "COC1=Nc2ccccc2/C=C\\c2ccccc21", "Potency": "inconclusive [inhibitor, partial curve]"},
      {"smiles": "CC(=O)c1c2c3c(c(Br)ccc3n(C)c1=O)C(=O)c1ccccc1-2", "Potency": "inconclusive [inhibitor, full curve]"},
      {"smiles": "O=C(Nc1ccncc1)C1CCN(S(=O)(=O)c2ccc(Cl)c(C(F)(F)F)c2)CC1", "Potency": "inconclusive [inhibitor, partial curve]"},
      {"smiles": "Nc1sccc1C(=O)N1CCN(c2ccccc2)CC1", "Potency": "inactive"},
      {"smiles": "COc1ccc(Cl)cc1NC(=O)CSC1=NN2CCCC(=O)N=C2S1", "Potency": "inconclusive [inhibitor, partial curve]"},
      {"smiles": "CCCc1cc(C(=O)Nc2cc(OC)ccc2OC)cs1", "Potency": "inconclusive [inhibitor, single point]"},
      {"smiles": "CC(C)C[C@H](NC(=O)[C@@H]1Cc2c([nH]c3ccccc23)C2c3ccccc3C(=O)N21)C(=O)N1CCC[C@@H]1C(=O)O", "note": "(stereo partly drawn)", "Potency": "inconclusive [inhibitor, single point]"}
    ]}
  ]
}
